# Results published in PMC12040169 (PLOS Biology, 2025).
# Some of the results follow.
# Test system: T1, C. trachomatis L2/434/Bu expressing GFP (CTL2-GFP)
# T1 construct: L2/434/Bu GFP intracellular growth in HeLa cells
# Design: species or system HeLa; C. trachomatis total inclusion area by high-content imaging, normalised to DMSO
# Details: total inclusion area; 28.5 h, 10 µM; inhibitor
# In short: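 High-content imaging followed the bulk GFP/resorufin measurement: fixed, Hoechst-stained cells were scored for GFP inclusions and host nuclei per well. Total inclusion area and count served as growth proxies, nuclei number as the viability proxy. MIC calculation matched the bulk assay.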
row,SMILES,% of control remaining
1,O=C(O)c1cccc(NS(=O)(=O)c2ccc(-c3cc(C(F)(F)F)on3)s2)c1 [CBK155722],90.5634
2,CN1CC2(CCCN(Cc3nnc(-c4cccnc4)o3)C2)OC1=O (centres unmarked) [CBK306888],50.4351
3,COCC(=O)N[C@H]1CCN2C(=O)c3cc(-c4ccc(F)cc4F)ccc3NC(=O)[C@@H]2C1 [CBK289561],99.2073
4,CCC(c1ccc(F)cc1)N(C)C(=O)Cn1cccc(C(=O)Nc2ccc(F)cc2)c1=O (centres unmarked) [CBK286061],100.429
5,CN(C(=O)c1ccccc1)[C@]1(C)C2CC(C[C@@H]2O)C1(C)C (some centres unmarked) [CBK010498],100.317
6,Cc1c(C(=O)NCCN2CCCC(C(N)=O)C2)[nH]c2c(F)cccc12 (centres unmarked) [CBK306877],65.5664
7,COc1cccc(CN2CCCC3(C2)c2[nH]c4ccccc4c2CCN3C(C)=O)c1 (centres unmarked) [CBK039634],100.284
8,COc1ccc([C@@]23CCN(C(=O)c4ccc(Cl)c(Cl)c4)C[C@@H]2CN(C)C3)cc1OC [CBK074308T],67.7156
9,N#CCCN1CCCC2(C1)NCCc1c2[nH]c2ccccc12 (centres unmarked) [CBK040031],94.1506
10,CC(C)(C)c1ccc(C(=O)NCCNC(=O)c2nonc2N)cc1 [CBK268869],89.8774
11,O=C(OCCc1ccncc1)N1Cc2ccccc2C1 [CBK200141],99.3804
12,CN1CCN(c2cccc(-c3ccccc3Oc3ccccc3)n2)CC1 [CBK037598],113.227
13,Cc1ccc(N(Cc2ccccc2OC(=O)c2cccnc2)C2=NS(=O)(=O)c3ccccc32)cc1 [CBK265760],82.4245
14,CCNc1cncc(-c2ccc(F)c(Cl)c2)n1 [CBK065322],65.6859
15,Oc1cccc(OCCOc2nccnc2N2CCCC2)c1 [CBK115756],99.199
16,Cc1ccc(C)n1-c1cccc(C(=O)N2CCn3cnnc3C2)c1 [CBK283646],81.064
17,COc1ccc(NC(=S)NC(=O)c2cc3c(C)nn(-c4ccccc4)c3s2)cc1[N+](=O)[O-] [CBK265324],116.256
18,COc1ccc(C2=NN(c3ccccc3)C(c3ccc(OC)c(OC)c3C(=O)O)C2)cc1 (centres unmarked) [CBK262679],112.1
19,CN1CCC(N2CC[C@@H]3[C@H]2C(=O)NC[C@H](CCC(=O)NCc2ccc(F)cc2)N3C)CC1 [CBK289022],106.664
20,CCCC(C(=O)O)C(C)CC(=O)Nc1ccccc1Cl (centres unmarked) [CBK286927],93.8173
21,COc1cc(-c2nccnc2NCCc2ccccn2)cc(OC)c1OC [CBK037307],118.454
22,Nc1nc(Cl)cc(Sc2ccc3ccccc3c2)n1 [CBK021630],67.5682
23,COc1ccc(CCNC(=O)c2cc3c([nH]c2=O)CCC3)cc1C [CBK281627],95.8034
24,Cc1ccc(NC(=O)CN2CCN(Cc3ccc4c(c3)OCO4)CC2)cc1 [CBK074403],125.716
25,O=C(c1cc[nH]n1)N1CCCC(c2cc3ccccc3cn2)C1 (centres unmarked) [CBK284921],100.434
26,CCCNc1cncc(-c2cccnc2)n1 [CBK037921],72.4981
27,Cc1nn(C)cc1C(=O)N1CCCCC1c1nc2ccccc2[nH]1 (centres unmarked) [CBK283779],71.1553

row,SMILES,% of control remaining
1,CC(c1ccc(F)c(F)c1)N(C)C(=O)Cn1[nH]c(=O)ccc1=O (centres unmarked) [CBK305810],57.9093
2,O=C(NCc1c(Cl)cccc1Cl)N(Cc1cccnc1)Cc1ccc2c(c1)OCO2 [CBK159450],38.7346
3,COC12CCCC(C(=O)O)(CCC1)C2 [CBK038238],58.467
4,COc1ccc([N+](=O)[O-])cc1NC(=O)C1(c2ccc(OC)c(OC)c2)CCOCC1 [CBK266243],119.419
5,O=C(NC[C@H]1CC[C@H](c2nnc(-c3ccsc3)o2)CC1)C1CC1 [CBK283361],98.5274
6,CCN(CC)C(=O)COc1ccc(NC(=O)Nc2cc(C)on2)cc1Cl [CBK305734],42.6113
7,COC(=O)c1c(COC(=O)c2cnc(Cl)c(Cl)c2)nc2ccccc2c1C [CBK296940],105.049
8,CSCc1nnc(SCc2ccccc2Oc2ccccc2)o1 [CBK296743],67.9309
9,NCc1ccc(OC2CCNCC2)cc1 [CBK003920T],97.3532
10,CC(=O)N1CCCc2cc(C(O)CN3CCC(C)CC3)ccc21 (centres unmarked) [CBK282588],111.14
11,Cc1ccc(S(=O)(=O)c2cncc(N3CCNCC3)n2)cc1 [CBK051166C],76.8165
12,Cc1ccc(-c2oncc2C(=O)N2CCC(n3c(=O)[nH]c4ccccc43)CC2)cc1 [CBK149180],80.6176
13,CCn1c2ccccc2c2cc(C(N)=O)c(N)nc21 [CBK019787],95.4332
14,CCNC(=O)c1c(O)c2ccccc2[nH]c1=O [CBK262450],78.5868
15,COc1ccc(-c2ccc3c(c2)C(=O)N2CC[C@H](N)C[C@H]2C(=O)N3)c(OC)c1 [CBK289560],80.3386
16,OCC(CNc1ncnc2nc[nH]c12)Cc1ccccn1 (centres unmarked) [CBK304412],66.5868
17,O=S(=O)(CCc1ccccn1)N1CCC(Cc2ccccc2)CC1 [CBK043632],73.8108
18,COc1ccc(CN2CCN(Cc3cccnc3)CC2)cc1OC [CBK074409G],91.3153
19,CCOC(=O)c1c(NC(=O)CSc2ncnc3sc(C)c(C)c23)sc(C)c1C [CBK266440],106.523
20,Cc1cc(NC(=O)N(Cc2cnn(C)c2)CC(C)C)ccc1F [CBK304206],22.2471
21,COc1ccc(C2c3cc(OC)c(OC)cc3CC(=O)N2c2ccc(C(=O)O)cc2)cc1 (centres unmarked) [CBK296074],111.768
22,O=C(NCc1ccco1)c1cc(-c2ccc(Cl)cc2)cnc1N1CCOCC1 [CBK076352],94.3041
23,COc1cc(C)c(Nc2cc(-c3ccc4c(c3)OCO4)ncn2)cc1OC [CBK037711],117.195
24,CC(C)(C)c1cn2c3ccccc3nc2n1CCO [CBK273412],94.3894
25,O=C(NCCn1nc(-c2ccco2)ccc1=O)c1ccccc1F [CBK283742],65.5331
26,CC(C)(c1ccccc1)c1ccc(OCCNCCN)cc1 [CBK265102],57.3924
27,O=C(c1cccnc1)N1CCC(c2cc3ccccc3cn2)CC1 [CBK284891],62.9972

row,SMILES,% of control remaining
1,CC(=O)c1ccc(-c2nc(NS(C)(=O)=O)cc3cccnc23)cc1 [CBK061874],84.6319
2,C[C@@H](Cn1nnc2ccccc21)NC(=O)Cc1cccs1 [CBK282312],89.8397
3,O=S(=O)(CCN1CCC2(CC1)CN(CCO)c1ccccc12)c1ccccc1 [CBK126758],58.3046
4,Cc1nn(C)c(C)c1NC(=O)COc1ccc2c(c1)CCCC2=O [CBK304963],94.2817
5,Cc1cc(C)cc(-c2ccc(CC3(C(=O)NC(C)CO)CCOCC3)cc2)c1 (centres unmarked) [CBK286523],89.3497
6,COc1ccc2[nH]cc(CCNC(=O)C3CC(=O)c4ccccc43)c2c1 (centres unmarked) [CBK116221],100.457
7,COc1ccc(-n2c(C)c([N+](=O)[O-])c3ccc(O)c(CNCCCO)c32)cc1 [CBK263504C],100.234
8,Nc1ncnc(NCCCn2ccnc2)c1[N+](=O)[O-] [CBK267312],101.065
9,O=C1CC(c2ccccc2)c2c(n3ccsc3nc2=O)N1 (centres unmarked) [CBK287923],80.1438
10,CC(=O)Nc1cccc(NC(=O)CCCC(=O)O)c1 [CBK261598],112.738
11,CCN(CC(=O)NCc1ccc(F)cc1)S(=O)(=O)c1ccccc1C#N [CBK305842],70.3208
12,Cc1cnoc1-c1cc(Br)cc(Br)c1O [CBK012420],97.7303
13,Cc1nnc(SCCn2c(N3CC(C)CC(C)C3)nc3c2c(=O)n(C)c(=O)n3C)s1 (centres unmarked) [CBK269419],97.463
14,COc1ccc(/C=N/NC(=O)c2ccc(CN3CCOCC3)cc2)cc1[N+](=O)[O-] [CBK262708],97.5915
15,Cc1ccc(N(Cc2ccc(C(=O)N(C)Cc3ccccc3)cc2)S(C)(=O)=O)cc1C [CBK263795],105.758
16,N#CC(N)c1c(Cl)cccc1Cl (centres unmarked) [CBK008288C],69.6115
17,Cn1c(N2CC[C@H](O)C2)nc2cc(C(=O)NCCC3CCCC3)ccc21 [CBK307447],47.2053
18,COc1cc2c(cc1NC(=O)CN(C)S(=O)(=O)c1ccc(Cl)cc1)oc1ccccc12 [CBK267404],102.384
19,Cc1ccc2ncnc(NCCCCCC(=O)O)c2c1 [CBK287256],113.526
20,CC(=O)Nc1ccc(S(=O)(=O)N(C)c2ccccn2)cc1Cl [CBK044789],100.148
21,Cc1cc(C2CCCN2C(=O)c2ccc(C(F)(F)F)nc2)on1 (centres unmarked) [CBK305761],62.4345
22,COc1cc(NC(=O)CC2(CC(=O)O)CCCCC2)ccc1N1CCCC1=O [CBK296637],80.8043
23,O=C(Nc1ccccn1)c1cnn(-c2ccc(Cl)cc2)c1C(F)(F)F [CBK107442],76.3985
24,Cc1csc(C(Cc2ccsc2)NC(=O)Cc2ccccn2)n1 (centres unmarked) [CBK285097],108.427
25,CCn1c(C)nc2cc(NC(=O)c3ccc(CN(C)C)cc3)ccc21 [CBK281880],95.5453
26,O=C(O)c1nccnc1-c1ccc(COc2cccc3ccccc23)cc1 [CBK050810],87.132
